The text below walks through data of the supplement of paper PMC4967469.

Lines with a small IC50 respond at low doses; a fit beyond the top or the lowest dose is shown as a bound at that dose. The AUC spans the tested range (256-fold, ending at the top dose) of the same fit: 1 means no effect, lower means more sensitive. The top dose, if marked as inferred, comes from the curve model; the source does not state it. A value given as a limit tells only on which side of the number the result lay.

Holding throughout (assay): Viability of human cancer cell lines after 72 h of drug (GDSC screen)
Compound in one test: C=CC(=O)N1CCc2ccc(-n3c(=O)ccc4cnc5ccc(-c6cnn(C)c6)cc5c43)cc21 [QL-XII-47]
Particulars: top dose 10.24 µM; top dose inferred. As to the method: (§1)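 Human cancer cell lines in 384-well plates, medium with 10% serum, drug for 72 h over a 256-fold dose range (nine 2-fold or five 4-fold steps up to the top dose). Adherent lines were fixed and stained with the nucleic acid dye Syto60, suspension lines read with resazurin; signal relative to control wells, capped at 0 and 100%. One two-parameter sigmoid per drug and line, fitted in a mixed model over all curves with the slope shared within a line.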

Compound in a further test: CCN1CCC(n2cc(CNc3cc(Cl)c4ncc(C#N)c(Nc5ccc(F)c(Cl)c5)c4c3)nn2)CC1 [KIN001-266]
The note with it: top dose 20 µM; top dose inferred. As to the method: as §1

Compound in another test: COc1ccc(-c2cc3nccn3c(Nc3ncccc3C(N)=O)n2)cc1OC [BAY 61-3606]
The note with it: top dose 8 µM; top dose inferred. As to the method: as §1

Compound in another test: O=C1/C(=C/c2cccs2)CC/C1=C\c1cccs1 [CCT007093]
The note with it: top dose 6.6 µM; top dose inferred. As to the method:
as §1

The term IC50 denotes the point on the concentration scale where inhibition reaches its midpoint. On to SK-ES-1 (Ewing sarcoma, semi-adherent), for which the AUC with QL-XII-47 turned out to be 0.854; in the test with KIN001-266, 0.898; with BAY 61-3606 it was 0.636; with CCT007093, 0.977. Also, the IC50 in the test with QL-XII-47 is 8.91 µM; with KIN001-266, greater than 20 µM; with BAY 61-3606, 1.22 µM; with CCT007093 it was greater than 6.6 µM.

For the cell line SK-HEP-1 (liver, adherent), the AUC stood at 0.98 in the test with QL-XII-47, 0.879 with KIN001-266, 0.718 with BAY 61-3606 and 0.989 with CCT007093. Besides, the IC50 with QL-XII-47 was greater than 10.2 µM; in the test with KIN001-266, 18.2 µM; with BAY 61-3606 it was 1.97 µM; with CCT007093, greater than 6.6 µM.

Regarding SK-LMS-1 (soft tissue, adherent), the AUC in the test with QL-XII-47 was 0.552; with KIN001-266 it was 0.88; with BAY 61-3606, 0.915; with CCT007093 it was 0.96. For the same cell line, the IC50 with QL-XII-47 is 0.88 µM; with KIN001-266, 19 µM; in the test with BAY 61-3606, greater than 8 µM; in the test with CCT007093, greater than 6.6 µM.

In the case of SK-LU-1 (lung adenocarcinoma, adherent), the AUC in the test with QL-XII-47 turned out to be 0.752; in the test with KIN001-266 it was 0.862; with BAY 61-3606 it was 0.687; in the test with CCT007093, 0.977. Besides, the IC50 with QL-XII-47 was 4.25 µM; in the test with KIN001-266, greater than 20 µM; with BAY 61-3606, 1.95 µM; with CCT007093, greater than 6.6 µM.

Turning to SK-MEL-1 (melanoma, suspension), the AUC in the test with QL-XII-47 was found to be 0.933; with KIN001-266, 0.856; with BAY 61-3606 it was 0.955; in the test with CCT007093, 0.993. The IC50 was greater than 10.2 µM with QL-XII-47, 12.8 µM with KIN001-266, greater than 8 µM with BAY 61-3606 and greater than 6.6 µM with CCT007093.

Regarding SK-MEL-2 (melanoma, adherent), the AUC with QL-XII-47 is 0.883; with KIN001-266, 0.975; with BAY 61-3606 it was 0.661; in the test with CCT007093, 0.987. The IC50 was greater than 10.2 µM in the test with QL-XII-47, greater than 20 µM with KIN001-266, 1.43 µM in the test with BAY 61-3606 and greater than 6.6 µM with CCT007093.

For the cell line SK-MEL-3 (melanoma, adherent), the AUC with QL-XII-47 was determined as 0.915; with KIN001-266, 0.759; in the test with BAY 61-3606 it was 0.806; with CCT007093 it was 0.927. For the same cell line, the IC50 with QL-XII-47 was greater than 10.2 µM; with KIN001-266 it was 8.06 µM; with BAY 61-3606, 4.88 µM; in the test with CCT007093 it was greater than 6.6 µM.

As to SK-MEL-24 (melanoma, adherent), the AUC with QL-XII-47 worked out at 0.983; with KIN001-266, 0.832; with BAY 61-3606 it was 0.977; in the test with CCT007093, 0.968. Further, the IC50 was greater than 10.2 µM in the test with QL-XII-47, 16.8 µM in the test with KIN001-266, greater than 8 µM with BAY 61-3606 and greater than 6.6 µM with CCT007093.

As to SK-MEL-28 (melanoma, adherent), the AUC with QL-XII-47 stood at 0.748; with KIN001-266 it was 0.79; with BAY 61-3606 it was 0.975; in the test with CCT007093, 0.966. The 50% inhibitory concentration (IC50) is 3.25 µM with QL-XII-47, 8.73 µM with KIN001-266, greater than 8 µM in the test with BAY 61-3606 and greater than 6.6 µM with CCT007093.

With SK-MEL-30 (melanoma, adherent), the AUC with QL-XII-47 came out at 0.52; in the test with KIN001-266, 0.867; in the test with BAY 61-3606, 0.937; with CCT007093, 0.981. The concentration for half-maximal inhibition (IC50) was 0.729 µM in the test with QL-XII-47, 19.8 µM with KIN001-266, greater than 8 µM with BAY 61-3606 and greater than 6.6 µM with CCT007093.

On to “SK-MES-1 (lung squamous cell carcinoma, adherent)”, for which the AUC turned out to be 0.815 with QL-XII-47, 0.84 in the test with KIN001-266, 0.7 in the test with BAY 61-3606 and 0.984 in the test with CCT007093. Moreover, the IC50 in the test with QL-XII-47 was 6.25 µM; with KIN001-266 it was 15.6 µM; with BAY 61-3606, 1.93 µM; with CCT007093 it was greater than 6.6 µM.

For SK-MM-2 (myeloma, suspension), the AUC was found to be 0.557 with QL-XII-47, 0.813 in the test with KIN001-266, 0.931 with BAY 61-3606 and 0.987 in the test with CCT007093. The IC50 is 0.923 µM in the test with QL-XII-47, 11.4 µM with KIN001-266, greater than 8 µM in the test with BAY 61-3606 and greater than 6.6 µM with CCT007093.

Consider SK-N-AS (neuroblastoma, adherent), for which the AUC in the test with QL-XII-47 was 0.424; with KIN001-266 it was 0.981; with BAY 61-3606, 0.839; in the test with CCT007093 it was 0.968. Also, the half-maximal inhibitory concentration (IC50) with QL-XII-47 is 0.383 µM; with KIN001-266, greater than 20 µM; with BAY 61-3606, 6.71 µM; in the test with CCT007093 it was greater than 6.6 µM.

Turning to SK-N-DZ (neuroblastoma, adherent), the AUC with QL-XII-47 was 0.988; with KIN001-266, 0.871; with BAY 61-3606, 0.918; in the test with CCT007093, 0.976. Moreover, the IC50 in the test with QL-XII-47 is greater than 10.2 µM; with KIN001-266 it was 18.5 µM; with BAY 61-3606, greater than 8 µM; in the test with CCT007093 it was greater than 6.6 µM.

As for SK-N-FI (neuroblastoma, adherent), the AUC in the test with QL-XII-47 was determined as 0.408; with KIN001-266, 0.881; in the test with BAY 61-3606, 0.955; with CCT007093, 0.989. Moreover, the IC50 with QL-XII-47 is 0.359 µM; in the test with KIN001-266 it was greater than 20 µM; in the test with BAY 61-3606, greater than 8 µM; with CCT007093 it was greater than 6.6 µM.
